Source: PubChem BioAssay (NCI)
Values joined by “and” are separate entries in the source; they are usually repeats but may differ in a detail not shown here. Identical values can stand only once.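 Tested at 5 concentrations; 48 h exposure; 96-well plates; endpoints linearly interpolated, else capped at highest concentration. The concentration for 50% growth inhibition is given as GI50. TGI: total growth inhibition.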 Bridge positions count the residues as written; N and C are the ends. Square brackets hold non-standard residues; d marks the D form. Peptide text beside a SMILES is read from it. * marks the point of attachment. ξ: configuration not given here. PhAc = O=C(Cc1ccccc1)*; ξP = O=C(O)C1CCCN1

These compounds were tested on NCI-H322M lung (assay: NCI-60 cell line screen, 48 h).

| Structure (SMILES) | TGI | GI50 |
| --- | --- | --- |
| CCOP(=O)(OCC)/C(=C\n1c(=S)[nH]c2cc(C)ccc21)C(=O)OC | > 100 µM | – |
| COc1ccc2c(c1)CCc1cc(C(N)=O)c3nnnn3c1-2 | > 100 µM | – |
| CC1=C(C(=O)OCCc2ccc([N+](=O)[O-])cc2)C(c2cccc([N+](=O)[O-])c2)C(C(=O)OC(C)C)=C(C)N1 (stereo not drawn) | > 100 µM | – |
| CC(CCc1ccccc1)NCC(O)n1c(/N=N/N(C)C)nc2c1c(=O)n(C)c(=O)n2C (stereo not drawn) | > 100 µM | – |
| CCOC(=O)C(=Cc1ccc(-c2ccccc2)cc1)C(=O)OCC | 11.4 µM | 3.07 µM |
| OC[C@H]1C[C@@H]2Cc3ccccc3N2N1 | > 100 µM | – |
| Cn1ccnc1CCc1ccc(Cl)cc1Cl | > 100 µM | – |
| O=C(NCCCCN(CCCNC(=O)C(F)(F)F)Cc1ccccc1)C(F)(F)F | > 100 µM | – |
| Cc1cccc(C)c1NC(=O)/C=C/c1ccccc1 | > 100 µM | – |
| Cc1cc(Cc2c(C)c(C)c(Cc3cc(C)cc(C(C)(C)C)c3O)c(C)c2C)c(O)c(C(C)(C)C)c1 | > 100 µM | – |
| C=C1C(=O)O[C@H]2[C@H]1CC/C(COC(=O)NCc1ccc(Cn3c(=O)sn(CCCC)c3=O)cc1)=C\CC[C@@]1(C)O[C@@H]21 | 23.7 µM | 11.6 µM |
| CCc1n[nH]c(=S)n1/N=C/c1ccc(-c2ccc([N+](=O)[O-])cc2)o1 | > 100 µM | – |
| CCOc1c(OC)cc(C2c3cc4c(c(OCC)c3CC3COC(=O)C32)OCO4)cc1OC (stereo not drawn) | > 100 µM | – |
| COc1ccc(NC(=O)CSc2nnc(-c3ccc(N=Cc4ccc(Cl)cc4)cc3)o2)cc1 | 89.8 µM | – |
| CCOC(=O)/C=C(\C)Sc1cc(O)c2ccccc2c1O | 43.8 µM | – |
| Cn1ccnc1C(=O)/C=C/c1ccc(C(=O)Nc2ccc(F)cc2)cc1 | 5.92 µM | 1.22 µM |
| O=S(=O)(O)c1ccc(-c2c3nc(c(-c4ccc(S(=O)(=O)O)cc4)c4ccc([nH]4)c(-c4ccc(S(=O)(=O)O)cc4)c4nc(c(-c5ccc(S(=O)(=O)O)cc5)c5ccc2[nH]5)C=C4)C=C3)cc1 | 65.1 µM | – |
| COc1ccc(CN(Cc2ccc(OC)cc2)C(=O)CC2(O)CCc3ccccc3C2)cc1 (stereo not drawn) | > 100 µM | – |
| Fc1cc(-c2csc3n[nH]c(=S)n23)c(Cl)cc1Cl | > 100 µM | 48.2 µM |
| [N-]=[N+]=NCC1OCC(O)C(OCc2ccccc2)C1OCc1ccccc1 (stereo not drawn) | > 100 µM | – |
| COC(=O)c1oc2c(C(C)=O)c(OCCN3CCOCC3)c(OC)cc2c1C | > 100 µM | > 100 µM |
| COc1cc2c(c(OC)c1OC)-c1ccc(SC)c(=O)cc1C(CC(=O)Oc1ccc(F)cc1)C2 (stereo not drawn) | 75 µM and 18.3 µM | 0.404 µM |
| COC(=O)c1ccc2cc(O)c(O)cc2c1 | > 100 µM | – |
| CCOc1cc2ncc(C#N)c(Nc3ccc(F)c(Cl)c3)c2cc1NC(=O)CC1CCSS1 (stereo not drawn) | 1.02 µM | 0.455 µM |
| CC(=O)NC(CCCN(Cc1ccccc1)C(=O)NCCCl)C(=O)NCc1ccccc1 (stereo not drawn) | > 100 µM | – |

| Structure (SMILES) | TGI | GI50 |
| --- | --- | --- |
| COc1cc2c(Nc3ccc(Cl)c(Cl)c3F)ncnc2cc1OCC1C[C@@H]2CN(C)C[C@@H]2C1 (stereo partly drawn) | 7.06 µM and > 5.68 µM and 11 µM | 0.0605 µM and 0.0341 µM and 0.0244 µM |
| CC(C)c1ccc(COCc2cc(CN3CCCC3)c(O)c3ncccc23)cc1 | 9.06 µM | 0.407 µM |
| COc1nc(=O)cc(N)n1C1OC(CO)C(O)C1O (stereo not drawn) | > 100 µM | – |
| CC(=O)Oc1cn(-c2ccc(Cl)cc2)nc1C1=NN(C(C)=O)C(c2ccc(F)cc2F)O1 (stereo not drawn) | 56.9 µM | 20.4 µM |
| CCN(CC)c1ccc(/C=C/C2=NN(c3cccc(S(=O)(=O)O)c3)C3(C2)SCC(=O)N3c2nc3ccccc3s2)cc1 (stereo not drawn) | > 100 µM | – |
| O=C1/C(=C/c2ccc(Cl)cc2Cl)CN(S(=O)(=O)c2ccccc2)C/C1=C\c1ccc(Cl)cc1Cl | 16.5 µM | 0.662 µM |
| COc1ccccc1NC(=O)c1ccc(NC2=C(Cl)C(=O)N(Cc3ccccc3)C2=O)cc1 | 63.5 µM | 21.5 µM |
| S=C(NCCc1ccccn1)c1nc[nH]c1C(=S)NCCc1ccccn1 | > 100 µM | – |
| CC(C)=NNC1=NC(C)(C)P(=O)(NNc2ncccn2)S1 (stereo not drawn) | > 100 µM | – |
| O=C1c2ccccc2C(=O)c2[nH]c(Cc3ccccc3F)nc21 | > 100 µM | – |
| COC(=O)C1CC2c3c(c4ccccc4n3C)CC(C1=O)N2C (stereo not drawn) | > 100 µM | – |
| COc1ccc2c(c1)/C(=C\c1c(-c3ccccc3)nc3n1CCS3)C(=O)N2 | 44.6 µM | – |
| N#Cc1cc2c(cc1Cl)SC(=Nc1ccccc1)N(S(=O)(=O)c1ccc(Cl)cc1)S2(=O)=O | 35.9 µM | 16.7 µM |
| COc1cc(/C=C\c2cc(/C=C\c3ccc(O)c(OC)c3)n(C(=O)COc3ccc(Cl)cc3Cl)n2)ccc1O | 11.3 µM | 1.4 µM |
| CCOc1ccc(/C=C\c2cc(OC)c(OC)c(OC)c2)cc1 | > 100 µM | – |
| COc1ccc2c3c([nH]c2c1)C(=O)c1nc(C)ccc1C3=O | > 100 µM | 2.98 µM |
| CC(=O)COC(=O)CC(C)=O | > 100 µM | – |
| COC(=O)C1=C(C(=O)OC)C2(C)OC1C(=O)C21CC1 (stereo not drawn) | > 100 µM | – |
| COC(=O)C1=C(C(=O)OC)C2(C3C(SC)=CC(C)(C)CC3S1)N(Cc1ccccc1)CCN2Cc1ccccc1 (stereo not drawn) | > 100 µM | – |
| Cc1ncc(CSc2ccccc2N)c(CO)c1O | > 100 µM | – |
| N#C/C(=C/c1cccc2ccccc12)C(=O)c1ccccc1 | > 100 µM | – |
| O=C(NC(N1CCN(c2cc3c(cc2F)c(=O)c(C(=O)O)cn3C2CC2)CC1)(C(F)(F)F)C(F)(F)F)c1ccccc1 | 93.3 µM | – |
| O=C1C(C(Nc2ccccc2)c2ccccc2)=C([O-])c2ccccc21.O=C1C(C(Nc2ccccc2)c2ccccc2)=C([O-])c2ccccc21.[Ni+2] (stereo not drawn) | > 100 µM | 5.79 µM |
| OC1CC1Sc1ccccc1 (stereo not drawn) | > 100 µM | – |
| CC(=O)Oc1ccc2c3c1[C@H]1O[C@H]1c1cccc(c1-3)[C@@H]1O[C@H]21 | 28.4 µM | – |

| Structure (SMILES) | TGI | GI50 |
| --- | --- | --- |
| O=C1/C(=C\c2cccc(Oc3ccccc3)c2)S(=O)(=O)C(c2ccccc2)N1c1cc(Cl)ccc1Cl (stereo not drawn) | > 100 µM | – |
| C=C[C@]1(C)CC(O)C2C(=C)C(=O)OC2[C@H]1C(=C)C=O (stereo partly drawn) | 29.2 µM | – |
| CN1CCN(CCCOc2ccc3ncnc(Nc4ccc(OCc5cccc(F)c5)c(Cl)c4)c3c2)CC1 | 1.98 µM | 0.565 µM |
| COC(=O)C12C3C4C1C1C2C3C41C(=O)NC(C)(C)CC(=O)O (stereo not drawn) | > 100 µM | – |
| C/C=C/C1(C)/C(=N\O)C(C)(CCC)C(=O)N1O (stereo not drawn) | > 100 µM | – |
| COc1ccc2c(c1)c(-c1nonc1-c1cn(C)c3ccccc13)cn2C | > 100 µM | 1.48 µM |
| CCOC(=O)C(C(C)=O)C1CC=CC1 (stereo not drawn) | > 100 µM | – |
| COc1ccc(Cc2nn(C3OC(COC(C)=O)C(OC(C)=O)C(OC(C)=O)C3OC(C)=O)c(=S)n(-c3ccc(OC)cc3)c2=O)cc1 (stereo not drawn) | > 100 µM | – |
| Cc1[nH]n(-c2ncc(C#N)c(=O)[nH]2)c(=O)c1CCO | > 100 µM | – |
| O=C1Nc2ccccc2/C1=C/C(=N/c1nnc(-c2ccc(Cl)cc2)s1)c1ccccc1 | 26.5 µM | 12.3 µM |
| CC(C)N(C(=O)C12C3(C(=O)OC(C)(C)C)C4C5(C#N)C3C1(C(=O)OC(C)(C)C)C5C42C(=O)OC(C)(C)C)C(C)C (stereo not drawn) | > 100 µM | – |
| CN(c1nc(=[N+](C)C)ss1)C1CCCCC1 | > 100 µM | – |
| C[C@@H]1OC(=O)C[C@H]2CC(=O)N(CCC3CN(C(=O)c4ccccc4)c4ccccc43)C[C@@H]21 (stereo partly drawn) | > 100 µM | – |
| O=c1cccccc1NCCCCCCCCNc1cccccc1=O | > 100 µM | – |
| O=C1CC(Cl)c2c1csc2Br (stereo not drawn) | 36.5 µM | – |
| CN(C)CCNC(=O)c1cccc2c(NC(CCCN=C(N)N)C(=O)O)c3ccccc3[n+](C)c12 (stereo not drawn) | > 100 µM | – |
| C=CCN(c1cc(OCc2ccccc2)c2c(c(C)cn2S(=O)(=O)c2ccc([N+](=O)[O-])cc2)c1[N+](=O)[O-])S(C)(=O)=O | > 100 µM | – |
| Oc1ccc(-c2nc3ccc(F)cc3s2)cc1 | 45.6 µM | – |
| COc1ccc2nc3n[nH]c(N)c3nc2c1 | > 71.8 µM | – |
| CCc1c(-c2ccccc2)[nH]c2ccccc2c1=O | > 100 µM | – |
| O=C(Cc1ccccc1)N[C@@H]1COC(=O)C2CCCN2C(=O)[C@@H]2CCCN2C1=O (stereo partly drawn) (PhAc-[dS]-Pro-[ξP]; ester 1-C) | > 100 µM | – |
| COc1ccc(C2Oc3ccc(O)cc3[C@@H]2C)cc1OC (stereo partly drawn) | > 100 µM | – |
| c1ccc(-c2n(Cc3ccc4ccccc4n3)cc[n+]2Cc2ccc3ccccc3n2)cc1 | 19.3 µM | 4.74 µM |
